Laboratory results published in publication PMC12136788.
Where a chain is given by its changes, count along the chain named. This is one part of the list.

T1: UNK ZnF1-3 (human, UniProt Q9C0B0 31-174)
T1 sequence: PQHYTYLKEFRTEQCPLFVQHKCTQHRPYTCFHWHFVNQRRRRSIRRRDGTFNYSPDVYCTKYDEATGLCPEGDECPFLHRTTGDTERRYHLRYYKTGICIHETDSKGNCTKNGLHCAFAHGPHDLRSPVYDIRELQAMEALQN

B1: 121870484_121870604_1008_3pUTR_ENSMUSG00000042719_ENSMUST00000042163|mouse|control|control (ssRNA)
RNA: GGGAGUUCUACAGUCCGACGAUCGCGCCUGAUGAGCUCCAGCUUAGCUAGGUGUGGGCCUCGGACAUGUCGAGAGCUUUGUGAUGCCUCUGUUAUCCUGUCCUCUAUAAACUUCACAGCAUCUUCUGCAGAGCAGUGUACUUCCAACAGAGGAUUGAGCAUCA
B2: chr6:114274515:114274516:-_ENSG00000196591_ENST00000368632|hu_hu|FALSE|FALSE (ssRNA)
RNA: GGGAGUUCUACAGUCCGACGAUCCAUUACACGAUCUGUUGUAUAAAAAGCUUCUUCAACACCAUCACCAUGAUGAAUAUCUAUAUCAAUAUAUAAGACUCUCUGAUGAUACUUUAGUAAUUCAAGGAUGGCAAGCACAAUAUCCAACAGAGGAUUGAGCAUCA
B3: chr7:149068622:149068623:-_ENSMUSG00000025139_ENSMUST00000001950|mus_hu|mus_mus_mus_hu_False|78_78 (ssRNA)
RNA: GGGAGUUCUACAGUCCGACGAUCGUGAGGCCUCUGAGUGUGGCUUGUGGUCUGUCCUGUCUGCAGUUUGUUAAUAUCACGGAACAUACCAUCUAGAACGUUCCAGUCCCGCCUGACACCUUCAUUCCCAAUGGAGAAGAAAUCCAACAGAGGAUUGAGCAUCA
B4: chr2:187370222:187370223:+_ENSG00000065548_ENST00000337859|hu_mus|motif|central (ssRNA)
RNA: GGGAGUUCUACAGUCCGACGAUCUUUUCCUCUUCUUCCACGCGAGAAAAGACUCUAGAGUGAUUUUGGUAACAUUUGGACCGGGGGCAGAACGCUCUCUUUCAAUUAGAUCUUCUAAUGAGAUUUCAUCUUCCUUCUCUUCUUCAACAGAGGAUUGAGCAUCA
B5: chr5:134191040:134191041:+_ENSG00000181904_ENST00000394976|hu_mus|motif|central (ssRNA)
RNA: GGGAGUUCUACAGUCCGACGAUCAAAGGCAGCAGUGCCACAGCCAUAGCCAAGAUCUGCAAGGCGGGACAGAGCUUUAAUGCGGCCUGGAGGUCUCCCUGGGCUGACUUUGUAUCCUGCAGCUUUGGUUGUACCCAAAGGUCUCAACAGAGGAUUGAGCAUCA
B6: 94592701_94592821_2157_CDS_ENSG00000166025_ENST00000433060|human|control|control (ssRNA)
RNA: GGGAGUUCUACAGUCCGACGAUCCAGGUACUUCUGCUCCCACUUUGUCAUGUCGGCCUCCAGGGCCAGGAUCCGCUCCUCCUUCUCCCGCACAAGUUCCAGGAGGGCUGGGGCAUUGUAUUCCGGCAUGUUGGCUGGCUGGCCCAACAGAGGAUUGAGCAUCA
B7: 134301280_134303707_352_3pUTR_ENSG00000028839_ENST00000237264|human|control|control (ssRNA)
RNA: GGGAGUUCUACAGUCCGACGAUCUUUCCAACAUCACGUUUAUAAAUUACAUUUGCUCCUUCCAAAGCAAUCUUCCUUAAGUUUAAAUGACAUCUUGUUCUAAAAACACAGACUACAUUUGUAAUUAGAAUGUCCAAUGCAACACAACAGAGGAUUGAGCAUCA
B8: chr5:77764768:77764769:+_ENSMUSG00000029250_ENSMUST00000031167|mus_mus|motif|central (ssRNA)
RNA: GGGAGUUCUACAGUCCGACGAUCGACUCCAAGAAUCAUUGAUGGGUGAAUCUCACAGUGGGUGUAGGUAGAACAAUAAGCGGCUUCCUUCUCCUGCAAAUCAUCUGGAGUCAUUGCAAGCAUCACGGUCUCCUCUUCCAGGGUCAACAGAGGAUUGAGCAUCA
B9: chr7:56126341:56126342:+_ENSG00000146731_ENST00000540286|hu_mus|hu_hu_hu_mus_True|18_68 (ssRNA)
RNA: GGGAGUUCUACAGUCCGACGAUCCAUGUUUCUCCUCUUGGCUCUGCGCAGAGCUACGAUCCCUUCUUUUGAAAGAGCAUCUAAGGAAAAGGGGUCAAUCCCCUUUUGAUUAAUAACAACAAAUCCUUUAUCUGAGUCACCACACAACAGAGGAUUGAGCAUCA
B10: chr1:169100823:169100824:+_ENSG00000143153_ENST00000367816|hu_hu|FALSE|FALSE (ssRNA)
RNA: GGGAGUUCUACAGUCCGACGAUCUUGUUCAAGACUAGUAGGUUUUUGUUUUUGUAUCUUUUUUUAACUUAUUAAAUGGCUAGUGGGAAAGAUUUGUGCUUGUGAUCAGCUCUUAACUUCAAUUUUUACAUCAAAACGUCCCUGCAACAGAGGAUUGAGCAUCA
B11: chr4:57314706:57314707:+_ENSG00000128050_ENST00000264221|hu_mus|hu_hu_hu_mus_True|1_48 (ssRNA)
RNA: GGGAGUUCUACAGUCCGACGAUCCAGAAUUUCAAAAAUAGCUUGUGUGGCAUGACUCAUGAUGUCCACUUCAGUCUGCCCUAUAACAAGUCCAGCAAAACAGAAUUUUGCAGCAAUGAGUUGCUCCUCAGACCACUGUGGGUCCAACAGAGGAUUGAGCAUCA
B12: 147026393_147026513_1702_CDS_ENSG00000102081_ENST00000218200|human|control|control (ssRNA)
RNA: GGGAGUUCUACAGUCCGACGAUCCCGUCCGUCUCCUCUGCGCAGGAAGCUCUCCCUCUCUUCCUCUGUUGGAGCUAAUGACCAAUCACUGAGUUCGUCUCUGUGGUCAGAUUCUGUUUCAGAAGCAUUUGAUGCUUCAGAAUUCAACAGAGGAUUGAGCAUCA
B13: chr7:56126341:56126342:+_ENSG00000146731_ENST00000540286|hu_mus|hu_hu_hu_mus_True|18_18 (ssRNA)
RNA: B9 RNA with U69C, A71C, A75G
B14: chr8:104447970:104447971:+_ENSG00000164934_ENST00000297579|hu_hu|hu_hu_hu_mus_False|1_1 (ssRNA)
RNA: GGGAGUUCUACAGUCCGACGAUCAUACACUUCCCUGCUUCGGCUCUUGUCCACAGGAAAGAUUCUAAUAGACUUAUCAAAGCUGGCAGACACAAAUUCCUUCCCAGUGGGAGAGUAGUCCACAUCAAGUACUGCAGAUACAUGCAACAGAGGAUUGAGCAUCA
B15: chr3:150289932:150289933:+_ENSG00000144895_ENST00000460851|hu_mus|motif|central (ssRNA)
RNA: GGGAGUUCUACAGUCCGACGAUCCUUGUAGUUUUUAACAUCCCAUACUUCCAUUUGUCCUCGAAGAUUUCCAAAUCCAGCCAGCACGGAUAUAUGUCCAUGAGGGCUAUAGAAGGCUGCGUUGCGAGGACCAGUCCCAAAGUCCAACAGAGGAUUGAGCAUCA
B16: 134124241_134126239_1698_CDS_ENSG00000145833_ENST00000354283|human|control|control (ssRNA)
RNA: GGGAGUUCUACAGUCCGACGAUCGGGUUCAAAACCCAUGUCAAACAUUCUGUCUGCUUCAUCUAAAACAACAUAUGUCACUCUUCGAAGAUUUGUGACCCGACCACUGUUAGCGGCUAACAUGUCAAUCAUUCGACCAGGUGUCAACAGAGGAUUGAGCAUCA
B17: chr11:77336104:77336105:-_ENSG00000074201_ENST00000525064|hu_mus|hu_hu_hu_mus_False|1_98 (ssRNA)
RNA: GGGAGUUCUACAGUCCGACGAUCCUCACACAUUGCUGUGAACAUUGCCUCCAAUGCUGACUUAUCACUGGGCACAAAUCGAAAUUCAGAAAUGGGUUCAACAUCAUCAUUGUCUUCCUCAUCUUCAUCAGAGAGAGCAGGUUCCAACAGAGGAUUGAGCAUCA
B18: chr1:74301520:74301521:+_ENSMUSG00000006304_ENSMUST00000006467|perfect_dup|FALSE|FALSE (ssRNA)
RNA: GGGAGUUCUACAGUCCGACGAUCGAAGACUACUGUGACUCUGUCCUUUUUAGACUCAACAUACAUGGUCUCAUCAUCCCUAUAAUGGAUAACUGCCCUGUUCUCUCCUUCCUUGCCCUCUUCUUGGAAUUGGAAGUAUUUUUCCAACAGAGGAUUGAGCAUCA
B19: 8533615_8533735_883_3pUTR_ENSMUSG00000047187_ENSMUST00000060232|mouse|control|control (ssRNA)
RNA: GGGAGUUCUACAGUCCGACGAUCAAUAGUUUCAUGUCUCAGCUGAGCAUGAGGAAAGAGGGUGACAGAGUGCGUGGCUCCACUGGGCAGCUAGCCGGUAACACCAGACUCAACAGCAGCCUCCCCCUGCCUGCUGUCCGCCUUCAACAGAGGAUUGAGCAUCA
B20: chr19:45035288:45035289:+_ENSMUSG00000036097_ENSMUST00000096053|mus_mus|FALSE|FALSE (ssRNA)
RNA: GGGAGUUCUACAGUCCGACGAUCAGUCUCCAGAGGAAACAAAGAUCCAAAACCAACGCCCAUGUUGAAGAAUACAGCUGCUAUAUCAGACAAAGAUGGGAUCCAGGGCCAAACUGGAGAGUCACUGAAAGUAUCAUUUCUAAUCAACAGAGGAUUGAGCAUCA
B21: 155312183_155314165_1929_CDS_ENSMUSG00000042699_ENSMUST00000042141|mouse|control|control (ssRNA)
RNA: GGGAGUUCUACAGUCCGACGAUCUAGGUUGCAAUUUGCAUCAUCAUCUUCACCACCAUCAUCCUCCUUAUCCUUCUUUUUCUUGUCCUUUGGAGGAGGAAUGAAUUGAGUCAUCUGAAUGCAGUCUUCCAGAAAAUACUCUUGCAACAGAGGAUUGAGCAUCA
B22: chr2:119558892:119558893:+_ENSMUSG00000027304_ENSMUST00000028767|mus_hu|FALSE|FALSE (ssRNA)
RNA: GGGAGUUCUACAGUCCGACGAUCAGAUUCCCAGCUCCAUGGUAAUACUGAAUGCGUGCAGAGUGGCCAAUGAACUGCGCGGUUAAAAAAACAAAAGGCAAACACAAAUCUAAAGACAUGGAUAAAGCCCAAGAGAGCCCAGGCCAACAGAGGAUUGAGCAUCA

These binders were tested against T1, UNK ZnF1-3 (assay: nsRBNS (natural sequence RNA bind-n-seq); RBNS binding buffer (assumed for nsRBNS): 25 mM Tris pH 7.5, 150 mM KCl, 3 mM MgCl2, 0.01% Triton X-100, 500 ug/ml BSA, 20 U/ml SUPERase-In, 4 C; UNK is unkempt and MSI1 is Musashi-1; names of the RNAs are library labels; protein concentration not given here; high values mean tight binding).

Binder	binding signal [enrichment R]
B1	0.649
B2	1.51
B3	0.83
B4	0.489
B5	1.14
B6	0.398
B7	0.687
B8	1.09
B9	1.7
B10	1.09
B11	0.884
B12	0.457
B13	0.944
B14	0.907
B15	1
B16	0.632
B17	0.964
B18	0.656
B19	1.12
B20	1.84
B21	0.582
B22	2.82
